# Test results: the supplement of paper PMC8728848
# The list shows a part of the results.
# B1: Pwp2 (Candida glabrata) (protein)
# chain: MGSSHHHHHHSSGLVPRGSHMASKNPVELNNVCTFPNDYGRIPGFTVLVGRLGLLISASDYKELLRYPGAFLIATQDTMTTSPNFELTGFPFFTGLYGLTVFPLDLLVELRGYFVPPNSGQYTFTLSDSDDAAIIFLGNPSAFPCGDLQNWPKPSEEDITVTDHLFPSRTLYLIEGVAYPMRIAYYNGIGAGRLNAAFIDPSGTRHTNWEGYIWQYDPCSTCTYS
# Assays:
# Assay in all cases: glycan array binding signal (z-score within array); higher = stronger binding
# Settings in all cases: glycan notation: IUPAC condensed, linker removed
# [1] = biological target: Gal(b1-4)GlcNAc(b1-2)[Gal(b1-4)GlcNAc(b1-6)]Man(a1-6)[GlcNAc(b1-4)][Gal(b1-4)GlcNAc(b1-2)Man(a1-3)]Man(b1-4)GlcNAc(b1-4)GlcNAc
# How it was run: (§1)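 Glycan array binding is given as a within-array Z-score, which can be read as non-binding when negative. The arrays, 3228 of them, came from the Consortium for Functional Glycomics database and were retained only where the protein sequence was available. Z-scores were averaged across arrays of the same protein sequence at different concentrations or buffers and across linkers.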
# [2] = biological target: Gal(b1-4)GlcNAc(b1-2)[Gal(b1-4)GlcNAc(b1-6)]Man(a1-6)[GlcNAc(b1-4)][Gal(b1-4)GlcNAc(b1-2)[Gal(b1-4)GlcNAc(b1-4)]Man(a1-3)]Man(b1-4)GlcNAc(b1-4)[Fuc(a1-6)]GlcNAc
# How it was run: as §1
# [3] = biological target: Gal(b1-4)GlcNAc(b1-3)Gal(b1-3)GalNAc
# How it was run: as §1
# [4] = biological target: Gal(b1-4)GlcNAc(b1-3)Gal(b1-3)GlcNAc
# How it was run: as §1
# [5] = biological target: Gal(b1-4)GlcNAc(b1-3)Gal(b1-4)Glc
# How it was run: as §1
# [6] = biological target: Gal(b1-4)GlcNAc(b1-3)Gal(b1-4)GlcNAc
# How it was run: as §1
# [7] = biological target: Gal(b1-4)GlcNAc(b1-3)Gal(b1-4)GlcNAc(b1-2)Man(a1-3)[Gal(b1-4)GlcNAc(b1-3)Gal(b1-4)GlcNAc(b1-2)Man(a1-6)]Man(b1-4)GlcNAc(b1-4)GlcNAc
# How it was run: as §1
# [8] = biological target: Gal(b1-4)GlcNAc(b1-3)Gal(b1-4)GlcNAc(b1-2)Man(a1-3)[Gal(b1-4)GlcNAc(b1-3)Gal(b1-4)GlcNAc(b1-2)Man(a1-6)]Man(b1-4)GlcNAc(b1-4)[Fuc(a1-6)]GlcNAc
# How it was run: as §1
# [9] = biological target: Gal(b1-4)GlcNAc(b1-3)Gal(b1-4)GlcNAc(b1-2)[Gal(b1-4)GlcNAc(b1-3)Gal(b1-4)GlcNAc(b1-6)]Man(a1-6)[Gal(b1-4)GlcNAc(b1-3)Gal(b1-4)GlcNAc(b1-2)Man(a1-3)]Man(b1-4)GlcNAc(b1-4)GlcNAc
# How it was run: as §1
# [10] = biological target: Gal(b1-4)GlcNAc(b1-3)Gal(b1-4)GlcNAc(b1-2)[Gal(b1-4)GlcNAc(b1-3)Gal(b1-4)GlcNAc(b1-6)]Man(a1-6)[Gal(b1-4)GlcNAc(b1-3)Gal(b1-4)GlcNAc(b1-2)Man(a1-3)]Man(b1-4)GlcNAc(b1-4)[Fuc(a1-6)]GlcNAc
# How it was run: as §1
# [11] = biological target: Gal(b1-4)GlcNAc(b1-3)Gal(b1-4)GlcNAc(b1-3)Gal(b1-4)GlcNAc
# How it was run: as §1
# [12] = biological target: Gal(b1-4)GlcNAc(b1-3)Gal(b1-4)GlcNAc(b1-3)Gal(b1-4)GlcNAc(b1-2)Man(a1-3)[Gal(b1-4)GlcNAc(b1-3)Gal(b1-4)GlcNAc(b1-3)Gal(b1-4)GlcNAc(b1-2)Man(a1-6)]Man(b1-4)GlcNAc(b1-4)GlcNAc
# How it was run: as §1
# [13] = biological target: Gal(b1-4)GlcNAc(b1-3)Gal(b1-4)GlcNAc(b1-3)Gal(b1-4)GlcNAc(b1-2)Man(a1-3)[Gal(b1-4)GlcNAc(b1-3)Gal(b1-4)GlcNAc(b1-3)Gal(b1-4)GlcNAc(b1-2)Man(a1-6)]Man(b1-4)GlcNAc(b1-4)[Fuc(a1-6)]GlcNAc
# How it was run: as §1
# [14] = biological target: Gal(b1-4)GlcNAc(b1-3)Gal(b1-4)GlcNAc(b1-3)Gal(b1-4)GlcNAc(b1-2)[Gal(b1-4)GlcNAc(b1-3)Gal(b1-4)GlcNAc(b1-3)Gal(b1-4)GlcNAc(b1-6)]Man(a1-6)[Gal(b1-4)GlcNAc(b1-3)Gal(b1-4)GlcNAc(b1-3)Gal(b1-4)GlcNAc(b1-2)Man(a1-3)]Man(b1-4)GlcNAc(b1-4)[Fuc(a1-6)]GlcNAc
# How it was run: as §1
# [15] = biological target: Gal(b1-4)GlcNAc(b1-3)Gal(b1-4)GlcNAc(b1-3)Gal(b1-4)GlcNAc(b1-3)Gal(b1-4)GlcNAc(b1-2)Man(a1-3)[Gal(b1-4)GlcNAc(b1-3)Gal(b1-4)GlcNAc(b1-3)Gal(b1-4)GlcNAc(b1-3)Gal(b1-4)GlcNAc(b1-2)Man(a1-6)]Man(b1-4)GlcNAc(b1-4)GlcNAc
# How it was run: as §1
# [16] = biological target: Gal(b1-4)GlcNAc(b1-3)Gal(b1-4)GlcNAc(b1-3)Gal(b1-4)GlcNAc(b1-3)Gal(b1-4)GlcNAc(b1-2)Man(a1-3)[Gal(b1-4)GlcNAc(b1-3)Gal(b1-4)GlcNAc(b1-3)Gal(b1-4)GlcNAc(b1-3)Gal(b1-4)GlcNAc(b1-2)Man(a1-6)]Man(b1-4)GlcNAc(b1-4)[Fuc(a1-6)]GlcNAc
# How it was run: as §1
# [17] = biological target: Gal(b1-4)GlcNAc(b1-3)Gal(b1-4)GlcNAc(b1-3)Gal(b1-4)GlcNAc(b1-3)Gal(b1-4)GlcNAc(b1-2)[Gal(b1-4)GlcNAc(b1-3)Gal(b1-4)GlcNAc(b1-3)Gal(b1-4)GlcNAc(b1-3)Gal(b1-4)GlcNAc(b1-6)]Man(a1-6)[Gal(b1-4)GlcNAc(b1-3)Gal(b1-4)GlcNAc(b1-3)Gal(b1-4)GlcNAc(b1-3)Gal(b1-4)GlcNAc(b1-2)Man(a1-3)]Man(b1-4)GlcNAc(b1-4)[Fuc(a1-6)]GlcNAc
# How it was run: as §1
# [18] = biological target: Gal(b1-4)GlcNAc(b1-3)Gal(b1-4)GlcNAc(b1-3)Gal(b1-4)GlcNAc(b1-3)Gal(b1-4)GlcNAc(b1-3)Gal(b1-4)GlcNAc(b1-2)Man(a1-3)[Gal(b1-4)GlcNAc(b1-3)Gal(b1-4)GlcNAc(b1-3)Gal(b1-4)GlcNAc(b1-3)Gal(b1-4)GlcNAc(b1-3)Gal(b1-4)GlcNAc(b1-2)Man(a1-6)]Man(b1-4)GlcNAc(b1-4)GlcNAc
# How it was run: as §1
# [19] = biological target: Gal(b1-4)GlcNAc(b1-3)Gal(b1-4)GlcNAc(b1-3)Gal(b1-4)GlcNAc(b1-3)Gal(b1-4)GlcNAc(b1-3)Gal(b1-4)GlcNAc(b1-2)Man(a1-3)[Gal(b1-4)GlcNAc(b1-3)Gal(b1-4)GlcNAc(b1-3)Gal(b1-4)GlcNAc(b1-3)Gal(b1-4)GlcNAc(b1-3)Gal(b1-4)GlcNAc(b1-2)Man(a1-6)]Man(b1-4)GlcNAc(b1-4)[Fuc(a1-6)]GlcNAc
# How it was run: as §1
# [20] = biological target: Gal(b1-4)GlcNAc(b1-3)Gal(b1-4)GlcNAc(b1-3)Gal(b1-4)GlcNAc(b1-3)Gal(b1-4)GlcNAc(b1-3)Gal(b1-4)GlcNAc(b1-2)[Gal(b1-4)GlcNAc(b1-3)Gal(b1-4)GlcNAc(b1-3)Gal(b1-4)GlcNAc(b1-3)Gal(b1-4)GlcNAc(b1-3)Gal(b1-4)GlcNAc(b1-6)]Man(a1-6)[Gal(b1-4)GlcNAc(b1-3)Gal(b1-4)GlcNAc(b1-3)Gal(b1-4)GlcNAc(b1-3)Gal(b1-4)GlcNAc(b1-3)Gal(b1-4)GlcNAc(b1-2)Man(a1-3)]Man(b1-4)GlcNAc(b1-4)[Fuc(a1-6)]GlcNAc
# How it was run: as §1
# [21] = biological target: Gal(b1-4)GlcNAc(b1-3)Gal(b1-4)GlcNAc(b1-3)Gal(b1-4)GlcNAc(b1-3)Gal(b1-4)GlcNAc(b1-3)Gal(b1-4)GlcNAc(b1-3)Gal(b1-4)GlcNAc(b1-2)Man(a1-3)[Gal(b1-4)GlcNAc(b1-3)Gal(b1-4)GlcNAc(b1-3)Gal(b1-4)GlcNAc(b1-3)Gal(b1-4)GlcNAc(b1-3)Gal(b1-4)GlcNAc(b1-3)Gal(b1-4)GlcNAc(b1-2)Man(a1-6)]Man(b1-4)GlcNAc(b1-4)GlcNAc
# How it was run: as §1
# [22] = biological target: Gal(b1-4)GlcNAc(b1-3)Gal(b1-4)GlcNAc(b1-3)GalNAc
# How it was run: as §1
# [23] = biological target: Gal(b1-4)GlcNAc(b1-3)Gal(b1-4)GlcNAc(b1-3)[Gal(b1-4)GlcNAc(b1-3)Gal(b1-4)GlcNAc(b1-6)]GalNAc
# How it was run: as §1
binder,measurement,setting,value
B1,glycan array binding signal (z-score),[1],-0.569
same,glycan array binding signal (z-score),[2],-0.503
same,glycan array binding signal (z-score),[3],-0.128
same,glycan array binding signal (z-score),[4],0.239
same,glycan array binding signal (z-score),[5],-0.415
same,glycan array binding signal (z-score),[6],-0.494
same,glycan array binding signal (z-score),[7],0.573
same,glycan array binding signal (z-score),[8],2.6
same,glycan array binding signal (z-score),[9],0.214
same,glycan array binding signal (z-score),[10],0.398
same,glycan array binding signal (z-score),[11],-0.625
same,glycan array binding signal (z-score),[12],-0.035
same,glycan array binding signal (z-score),[13],0.935
same,glycan array binding signal (z-score),[14],-0.243
same,glycan array binding signal (z-score),[15],0.211
same,glycan array binding signal (z-score),[16],3.91
same,glycan array binding signal (z-score),[17],-0.339
same,glycan array binding signal (z-score),[18],0.073
same,glycan array binding signal (z-score),[19],1.62
same,glycan array binding signal (z-score),[20],-0.585
same,glycan array binding signal (z-score),[21],2.5
same,glycan array binding signal (z-score),[22],0.189
same,glycan array binding signal (z-score),[23],0.599
